In article PMC4336329 (PLoS ONE, 2015):
Screen size: about 310,000 compounds; about 14,000 (4.5%) showed an effect of 50% or more. Effects have a minus sign here. This is one part of the list.

target: human ether-à-go-go-related gene (hERG) potassium channel (human, UniProt Q12809); experiment: primary screen, population patch clamp on CHO cells stably expressing hERG
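Also: peak tail current of the secondary pulse compared with the same well before compound.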

human ether-à-go-go-related gene (hERG) potassium channel, sequence (Q12809 whole entry, looked up): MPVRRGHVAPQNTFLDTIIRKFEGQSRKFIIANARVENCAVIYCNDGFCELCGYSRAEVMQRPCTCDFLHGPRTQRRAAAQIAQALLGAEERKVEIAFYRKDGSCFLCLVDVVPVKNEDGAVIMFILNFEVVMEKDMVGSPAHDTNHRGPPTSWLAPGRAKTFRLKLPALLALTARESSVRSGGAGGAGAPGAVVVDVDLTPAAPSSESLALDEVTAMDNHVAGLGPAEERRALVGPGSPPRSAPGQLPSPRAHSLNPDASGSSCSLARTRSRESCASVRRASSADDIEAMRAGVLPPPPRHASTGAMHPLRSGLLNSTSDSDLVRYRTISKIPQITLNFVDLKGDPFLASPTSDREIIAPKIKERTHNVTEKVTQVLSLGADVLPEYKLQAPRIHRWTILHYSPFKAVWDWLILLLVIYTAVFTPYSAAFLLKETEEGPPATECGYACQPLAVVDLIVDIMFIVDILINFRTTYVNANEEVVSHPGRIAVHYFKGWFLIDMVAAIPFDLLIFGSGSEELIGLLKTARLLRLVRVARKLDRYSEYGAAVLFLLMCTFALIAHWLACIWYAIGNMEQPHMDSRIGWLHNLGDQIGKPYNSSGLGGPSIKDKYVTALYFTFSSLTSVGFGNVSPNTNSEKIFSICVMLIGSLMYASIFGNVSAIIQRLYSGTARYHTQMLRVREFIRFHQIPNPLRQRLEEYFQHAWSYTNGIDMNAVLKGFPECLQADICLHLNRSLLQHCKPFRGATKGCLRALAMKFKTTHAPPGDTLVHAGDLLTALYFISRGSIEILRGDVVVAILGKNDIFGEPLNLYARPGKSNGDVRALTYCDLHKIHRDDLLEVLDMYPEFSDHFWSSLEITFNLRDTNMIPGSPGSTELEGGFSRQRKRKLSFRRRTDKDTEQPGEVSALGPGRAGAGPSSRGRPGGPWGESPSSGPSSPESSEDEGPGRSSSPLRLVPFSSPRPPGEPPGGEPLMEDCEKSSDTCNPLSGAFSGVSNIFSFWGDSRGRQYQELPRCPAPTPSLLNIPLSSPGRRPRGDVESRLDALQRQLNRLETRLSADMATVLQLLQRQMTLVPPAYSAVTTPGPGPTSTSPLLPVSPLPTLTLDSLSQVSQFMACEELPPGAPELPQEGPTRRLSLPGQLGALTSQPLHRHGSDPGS

| SMILES | hERG current change (%, negative = inhibition) at 10uM |
| --- | --- |
| Cc1ccc(S(=O)(=O)N[C@H](C(=O)N2CCC3(O)CCCCC3C2)c2ccccc2)cc1 (stereo partly drawn) | -9.4% |
| Cc1ccccc1OCC(=O)OCC(=O)NCCc1ccccc1 | 14.1% |
| COc1cc(C#N)ccc1OC(=O)C1CCN(C(=O)c2ccc(F)cc2)CC1 | -23.9% |
| COCCNC(=O)c1cc(-c2ccccn2)nc2ccc(S(=O)(=O)N3CCC(C)CC3)cc12 | -61.8% |
| O=C(CNC(=O)N1CC(=O)Nc2ccccc21)Nc1cc(Cl)ccc1Cl | -1.78% |
| O=C(NC(Cc1ccccc1)C(=O)O)/C(=C/c1ccc(Br)cc1)NC(=O)c1ccc(Br)o1 (stereo not drawn) | 10.4% |
| Cc1c(Cl)cccc1NC(=O)C1=COCCO1 | 10.6% |
| CSCCC(NC(=O)COc1ccccc1)C(=O)OCc1ccc([N+](=O)[O-])cc1 (stereo not drawn) | -70.8% |
| O=C(CCC(=O)OCc1ccc(Cl)cc1)Nc1ccccc1 | -2.43% |
| COc1ccc(CCNC(=O)N2CCOCC2)cc1 | 3.45% |
| NS(=O)(=O)c1cccc(NC(=O)CSc2ncnc3ccccc23)c1 | -3.55% |
| COc1ccc2[nH]c(C(=O)O)c(CCN3C(=O)c4ccc(C(=O)O)cc4C3=O)c2c1 | 14.6% |
| CCc1ccccc1NC(=O)N1CCCC(CCC(=O)N(C)CCc2ccccn2)C1 (stereo not drawn) | 13.1% |
| CCn1c(SCC(=O)C(C)(C)C)nnc1-c1cnccn1 | -4.47% |
| COc1ccc(C(=O)CCC(=O)Nc2ccc(Cl)cc2)cc1 | 11.2% |
| COc1ccc(C(=O)NC(C(=O)NCC2(N3CCCCC3)CCCCC2)C(C)C)cc1 (stereo not drawn) | -4.21% |
| CCS(=O)(=O)N1CCCC(C(=O)N2CCc3ccccc3C2)C1 (stereo not drawn) | -6.95% |
| CCOC(=O)N1CCN(C(=O)c2ccc3c(c2)N(Cc2cccc(Cl)c2)C(=O)c2ccccc2S3=O)CC1 (stereo not drawn) | -9.54% |
| Cc1nc(SCC(=O)N2CCOCC2)c2c(=O)n(C)c(=O)n(C)c2n1 | 0.699% |
| CCNC(=S)N1CCN=C1Nc1nc(C)cc(C)n1 | -3.67% |
| COc1ccccc1C(=O)NNC(=S)NC(=O)c1cccs1 | 21.9% |
| CCOC(=O)c1c(CN2CCC(C)CC2)oc2ccc(OC)cc12 | -51.2% |

| SMILES | hERG current change (%, negative = inhibition) at 10uM |
| --- | --- |
| CC(=O)N1C(=O)C(=C2C=C(C)OC(C)=C2)c2ccccc21 | -8.12% |
| O=C1OCc2cc(N=Nc3c(O)[nH]c(=O)[nH]c3=O)ccc21 | 11.8% |
| CCc1ccc(CN(C)CC(=O)Nc2ccc3c(c2)CCC3)cc1 | 9.39% |
| O=[N+]([O-])c1cc(Cl)ccc1NCCNS(=O)(=O)c1ccccc1 | -5.56% |
| CCC1(C)Cc2ccccc2-c2nc(NCCCO)n(-c3ccccc3)c(=O)c21 (stereo not drawn) | -48.6% |
| CCNS(=O)(=O)c1ccc(CCC(=O)NCCC2=CCCCC2)cc1 | -23.6% |
| N#C/C(=C\c1ccco1)C(=O)Nc1cccc2ncccc12 | 3.61% |
| CN(C(=O)c1ccc2c(c1)OCCO2)c1c(N)n(Cc2ccccc2)c(=O)[nH]c1=O | 2.18% |
| CCN(CC(=O)NCc1ccc(Cl)cc1)C(=O)/C=C/c1ccc(C#N)cc1 | -62% |
| COc1ccc2[nH]c(=O)c(CNc3ccccc3)cc2c1 | 11.3% |
| Cc1nc2nc[nH]n2c(=O)c1C/C=C/c1ccccc1 | 15.8% |
| O=C(CN1CCN(Cc2ccccc2)CC1)Nc1cccc(S(=O)(=O)N2CCCCCC2)c1 | -76.3% |
| O=C(NC(=S)N1CCN(c2ccccn2)CC1)c1ccco1 | 20.2% |
| CCOC(=O)c1c(NC(=O)c2cc(-c3cccc(O)c3)on2)sc(C(C)=O)c1C | 21.7% |
| CCc1ccc(N2CC(C(=O)NCCC3=CCCCC3)CC2=O)cc1 (stereo not drawn) | 7.08% |
| CCOC(=O)C1CCN(C(=O)COc2cccc(C)c2)CC1 | -2.48% |
| CC(C)c1cc(NCC2CCCO2)n2c(nc3ccccc32)c1C#N (stereo not drawn) | -41% |
| Cc1cc(C)c(-c2csc(NC(=O)/C=C/c3cccs3)n2)c(C)c1 | -3.06% |
| Cc1cc(Oc2ccc(=O)n(C)n2)nc(Oc2ccc(=O)n(C)n2)n1 | -0.695% |
| O=C(Nc1ccccc1C(=O)N1CCOCC1)c1ccncc1 | 3.42% |
| CC(=O)Nc1ccc(S(=O)(=O)NNC(=O)COc2cc(C)ccc2C(C)C)cc1 | 8.27% |
| Fc1ccc(Cn2nnnc2C(c2ccc(Cl)cc2)N2CC=C(c3ccc(F)cc3)CC2)cc1 (stereo not drawn) | 10.1% |

| SMILES | hERG current change (%, negative = inhibition) at 10uM |
| --- | --- |
| Cc1ccc(CNC(=O)C2CC(=O)N(CCC(C)C)C2)cc1 (stereo not drawn) | 7.87% |
| O=S(=O)(NCc1ccc(F)cc1)c1cc(Br)ccc1Br | -5.58% |
| Cc1ccc(Nc2nc(N)nc(CSc3nnc(-c4ccncc4)o3)n2)cc1 | 2.59% |
| N/C(=N\OC(=O)CC1CCCCC1)c1ccc(Cl)cc1 | 15.4% |
| O=C(c1ccco1)N(Cc1nc2ccccc2c(=O)[nH]1)C1CCCC1 | -8.35% |
| CC/C(=N\Nc1ccc([N+](=O)[O-])cc1)c1ccccc1 | 3.48% |
| Cc1cccc(N2CCN(C(=O)Cn3sc4nc(C)cc(C)c4c3=O)CC2C)c1 (stereo not drawn) | -2.48% |
| C#CCOCCOCCOCCNc1nc(N2CCN(C(=O)Cn3cc(CC(C)O)nn3)CC2)nc(N2CCN(C(=O)Cn3cc(CC(C)O)nn3)CC2)n1 (stereo not drawn) | -7.58% |
| O=C(Nc1ccc(N2CCN(C(=O)c3ccco3)CC2)cc1)c1ccccc1 | -0.203% |
| CCOc1ccc(N2CC(C(=O)Nc3ccc(S(=O)(=O)N4CCCC4)cc3)CC2=O)cc1 (stereo not drawn) | -11.7% |
| Cc1ccc(Cn2ccccc2=N)cc1.Cl | 9.85% |
| CCOC(=O)c1sc(NC(=O)c2ccc(S(=O)(=O)N3CCOCC3)cc2)nc1-c1ccccc1 | -27.6% |
| O=C(Cc1cccc2ccccc12)NN1C(=O)/C(=C\c2cccnc2)SC1=S | 15.3% |
| CC(C)(C)OC(=O)N/N=C\c1ccc(OC(=O)c2ccco2)cc1 | 8.67% |
| CN1CCN(NC(=O)c2cccc(S(=O)(=O)N3CCCCCC3)c2)CC1.Cl | -4.12% |
| CCCNC(=O)c1cccc(COCC(F)(F)C(F)F)c1 | -5.62% |
| C=CCn1c(SCCOc2ccc(OC)cc2)nnc1C(C)NC(=O)c1ccc(OC)cc1 (stereo not drawn) | 9.13% |
| Cc1ccc(-n2cc(-c3ccc([N+](=O)[O-])cc3)[nH]c2=S)c(C)c1 | -51.3% |
| Cc1ccc(C)c(NC(=O)c2cc(-c3ccccc3O)n[nH]2)c1 | 17.4% |
| COC(=O)Nc1nnc(SCc2ccc(C)cc2)s1 | 19.5% |
| Cn1c(=O)c2c(nc(Br)n2Cc2nnc(N)s2)n(C)c1=O | 14.8% |
| COCC1OS(=O)(=O)NC(CC(=O)SC(C)(C)C)C1C (stereo not drawn) | 7.04% |

| SMILES | hERG current change (%, negative = inhibition) at 10uM |
| --- | --- |
| Cc1nn(CCOc2cccc(Br)c2)c(C)c1[N+](=O)[O-] | 6.29% |
| COc1ccc(N(CC(=O)Nc2ccccc2C(=O)NCC(C)C)S(C)(=O)=O)cc1 | 8.6% |
| COc1ccc([N+](=O)[O-])cc1Nc1ncnc2ccccc12 | 12.7% |
| Cc1ccc(S(=O)(=O)/C(=C/Cl)NC(=O)c2ccccc2)cc1 | -0.508% |
| Cc1cccc(N2CCN(C(=O)c3ccc(Cl)c(S(=O)(=O)N4CCc5ccccc5C4)c3)CC2)c1C | 6.09% |
| CC(=O)N(C1CC(C)C(C#N)(C#N)C1(C#N)C#N)N(C)C (stereo not drawn) | -14.5% |
| COc1ccc(N(CC(=O)Nc2cccc3ccccc23)S(C)(=O)=O)cc1 | -1.75% |
| COc1ccc(CCN)cc1O.Cl | 13.2% |
| CC#CCN(CC#CC)S(=O)(=O)c1ccc(-n2cnnn2)c(OC)c1 | -3.48% |
| COc1ccccc1CN(C)C(=O)c1ccc2c(c1)NC(=O)CS2 | -8.83% |
| CC(C)(C)c1ccc(C(CC(=O)O)NC(=O)Cc2ccccc2)cc1 (stereo not drawn) | 15.3% |
| O=C(NC(=S)Nc1ccc(O)cc1)c1cncc(Br)c1 | -8.75% |
| CCCN(CC(=O)Nc1ccccc1C)C(=O)/C=C/c1ccc(OCC)c(OC)c1 | -46.7% |
| CC(=O)NS(=O)(=O)c1ccc(NC(=O)NC2CCCCC2)cc1 | -4.93% |
| CCc1nc(SCC(=O)c2cccc([N+](=O)[O-])c2)n[nH]1 | 3.01% |
| CCSc1nc2c(c(=O)[nH]1)C(c1ccc(C)cc1)C1=C(CCCC1=O)N2 (stereo not drawn) | 33.2% |
| O=c1c2ccccc2c(C=NCc2ccccn2)c(O)n1-c1ccccc1 | 14.2% |
| Cc1cc(C)n(-c2cc(-n3nc(C)cc3C)ncn2)n1 | -3.06% |
| O=C(Nc1cccc(-c2cn3ccccc3n2)c1)c1cccc(Cl)c1 | 4.75% |
| CCOC(=O)/C(=C/c1ccc(OC(=O)c2ccncc2)cc1)C(C)=O | -49.6% |
| O=C(CCc1c[nH]c2ccccc12)N1CCN(c2ccc(F)cc2)CC1 | -39.6% |
